# Whole data set: some 2,900 compounds, median “NF-kB SEAP reporter activity, fold change vs agonist alone” near 0.99, cut for the highest 2% near 2.6. This is one part of the list.
# Assays:
# [1] = system: RAW-Dual; test: NF-kB SEAP reporter activity, fold change vs agonist alone; higher = enhanced NF-kB activity
# Procedure, shortened: (§1)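 RAW-Dual macrophages were seeded in DMEM at 50,000 cells/well in 384-well plates, given 50 nL of library stock by pin tool, and given a PRR agonist 1 h later. Plates were held at 37 °C, 5% CO2 for 20 hours, after which supernatant was read for IRF by QuantiLuc luminescence and for NF-κB by QuantiBlue absorbance at 620 nm. Reporter activity is expressed as fold change over wells that received agonist alone. A well was called cytotoxic when IncuCyte confluency fell below 70% of agonist controls in both mask sets.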
# [2] = system: RAW-Dual; test: NF-kB SEAP reporter activity, fold change vs agonist alone; cytotoxicity flag (confluency mask): cytotoxic (confluency <70% of control); higher = enhanced NF-kB activity
# Procedure, shortened: as §1
# [3] = system: RAW-Dual; test: NF-kB SEAP reporter activity, fold change vs agonist alone; cytotoxicity flag (confluency mask): not cytotoxic; higher = enhanced NF-kB activity
# Procedure, shortened: as §1
# [4] = library stock concentration (final ~1000-fold dilution): 10 mM, cytotoxicity flag (confluency mask): cytotoxic (confluency <70% of control), agonist: Imiquimod (TLR7) […]
# [5] = library stock concentration (final ~1000-fold dilution): 10 mM, cytotoxicity flag (confluency mask): cytotoxic (confluency <70% of control), agonist: MPLA (TLR4) […]
# [6] = agonist: ODN 1826 (TLR9) 0.5 ug/mL
# [7] = agonist: Pam2CSK4 (TLR2/6) 0.1 ug/mL
# [8] = agonist: Pam3CSK4 (TLR2/1) 0.1 ug/mL
# [9] = library stock concentration (final ~1000-fold dilution): 10 mM, cytotoxicity flag (confluency mask): not cytotoxic, agonist: Imiquimod (TLR7) […]
# [10] = library stock concentration (final ~1000-fold dilution): 10 mM, cytotoxicity flag (confluency mask): not cytotoxic, agonist: MPLA (TLR4) […]
smiles,measurement,setting,value
CCOC(=O)c1cnc2ccc(-c3cncc(NS(=O)(=O)c4ccccc4)c3)cn12,NF-kB SEAP reporter activity,[1]; [4],1.31
same,NF-kB SEAP reporter activity,[1]; [5],2.94
C#CCC(c1nc2cc(Cl)ccc2c(=O)n1Nc1ccccc1)N(CCCN)C(=O)c1cccc(Cl)c1F (stereo unspecified),NF-kB SEAP reporter activity,[1]; [4],0.144
same,NF-kB SEAP reporter activity,[1]; [5],0.222
C#CCC(c1nc2cc(Cl)ccc2c(=O)n1Nc1ccccc1)N(CCCN)C(=O)c1cccc(Cl)c1F (stereo unspecified) (library stock concentration (final ~1000-fold dilution): 10 mM),NF-kB SEAP reporter activity,[2]; agonist: LPS (TLR4) 0.1 ug/mL,0.212
same,NF-kB SEAP reporter activity,[2]; [6],0.181
same,NF-kB SEAP reporter activity,[2]; [7],0.0665
same,NF-kB SEAP reporter activity,[2]; [8],0.135
COc1cc(C(=O)N2CCC(N3CCN(C)CC3)CC2)ccc1Nc1ncc2c(n1)N(C)c1ccccc1C(=O)N2C,NF-kB SEAP reporter activity,[1]; [9],1.48
same,NF-kB SEAP reporter activity,[1]; [10],2.66
COc1cc(C(=O)N2CCC(N3CCN(C)CC3)CC2)ccc1Nc1ncc2c(n1)N(C)c1ccccc1C(=O)N2C (library stock concentration (final ~1000-fold dilution): 10 mM),NF-kB SEAP reporter activity,[3]; agonist: LPS (TLR4) 0.1 ug/mL,3.59
same,NF-kB SEAP reporter activity,[3]; [6],0.264
same,NF-kB SEAP reporter activity,[3]; [7],1.02
same,NF-kB SEAP reporter activity,[3]; [8],2.01
CC(C)(O)c1cc(Nc2cc(Oc3cn(C4CC4)nc3C3CCOCC3)ccn2)ccn1 (library stock concentration (final ~1000-fold dilution): 10 mM),NF-kB SEAP reporter activity,[3]; agonist: LPS (TLR4) 0.1 ug/mL,1.63
same,NF-kB SEAP reporter activity,[3]; [6],1
same,NF-kB SEAP reporter activity,[3]; [7],1.34
same,NF-kB SEAP reporter activity,[3]; [8],1.1
CC(C)(O)c1cc(Nc2cc(Oc3cn(C4CC4)nc3C3CCOCC3)ccn2)ccn1,NF-kB SEAP reporter activity,[1]; [9],1.04
same,NF-kB SEAP reporter activity,[1]; [10],1.42
Cc1c(C(=O)NN2CCCCC2)nn(-c2ccc(Cl)cc2Cl)c1-c1ccc(Cl)cc1 (library stock concentration (final ~1000-fold dilution): 10 mM),NF-kB SEAP reporter activity,[3]; agonist: LPS (TLR4) 0.1 ug/mL,1.45
same,NF-kB SEAP reporter activity,[3]; [6],0.437
same,NF-kB SEAP reporter activity,[3]; [7],0.635
same,NF-kB SEAP reporter activity,[3]; [8],0.605
Cc1c(C(=O)NN2CCCCC2)nn(-c2ccc(Cl)cc2Cl)c1-c1ccc(Cl)cc1,NF-kB SEAP reporter activity,[1]; [9],0.595
same,NF-kB SEAP reporter activity,[1]; [10],0.98
CC12CCC(O)CC1=CCC1C2CCC2(C)C(n3cnc4ccccc43)=CCC12 (stereo unspecified),NF-kB SEAP reporter activity,[1]; [9],1.35
same,NF-kB SEAP reporter activity,[1]; [10],0.974
CC12CCC(O)CC1=CCC1C2CCC2(C)C(n3cnc4ccccc43)=CCC12 (stereo unspecified) (library stock concentration (final ~1000-fold dilution): 10 mM),NF-kB SEAP reporter activity,[3]; agonist: LPS (TLR4) 0.1 ug/mL,1.32
same,NF-kB SEAP reporter activity,[3]; [6],0.887
same,NF-kB SEAP reporter activity,[3]; [7],1.2
same,NF-kB SEAP reporter activity,[3]; [8],1.22
O=C(NCC1(c2nc(-c3ccccc3)cs2)CCOCC1)c1cccc(-c2noc(C(F)(F)F)n2)c1,NF-kB SEAP reporter activity,[1]; [9],0.941
same,NF-kB SEAP reporter activity,[1]; [10],0.882
O=C(NCC1(c2nc(-c3ccccc3)cs2)CCOCC1)c1cccc(-c2noc(C(F)(F)F)n2)c1 (library stock concentration (final ~1000-fold dilution): 10 mM),NF-kB SEAP reporter activity,[3]; agonist: LPS (TLR4) 0.1 ug/mL,0.714
same,NF-kB SEAP reporter activity,[3]; [6],1.04
same,NF-kB SEAP reporter activity,[3]; [7],0.727
same,NF-kB SEAP reporter activity,[3]; [8],0.589
CCN(C)S(=O)(=O)Nc1ccc(F)c(C(=O)c2c[nH]c3ncc(-c4cnc(C5CC5)nc4)cc23)c1F,NF-kB SEAP reporter activity,[1]; [9],1.24
same,NF-kB SEAP reporter activity,[1]; [10],1.62
CCN(C)S(=O)(=O)Nc1ccc(F)c(C(=O)c2c[nH]c3ncc(-c4cnc(C5CC5)nc4)cc23)c1F (library stock concentration (final ~1000-fold dilution): 10 mM),NF-kB SEAP reporter activity,[3]; agonist: LPS (TLR4) 0.1 ug/mL,3.3
same,NF-kB SEAP reporter activity,[3]; [6],1.55
same,NF-kB SEAP reporter activity,[3]; [7],0.469
same,NF-kB SEAP reporter activity,[3]; [8],0.764
COc1cc2c(Nc3ccc(Br)cc3F)ncnc2cc1OCC1CCN(C)CC1 (library stock concentration (final ~1000-fold dilution): 2 mM),NF-kB SEAP reporter activity,[3]; agonist: LPS (TLR4) 0.1 ug/mL,1.92
same,NF-kB SEAP reporter activity,[3]; [6],0.275
same,NF-kB SEAP reporter activity,[3]; [7],1.15
same,NF-kB SEAP reporter activity,[3]; [8],1.22
COc1cc2c(Nc3ccc(Br)cc3F)ncnc2cc1OCC1CCN(C)CC1,NF-kB SEAP reporter activity,"[1]; library stock concentration (final ~1000-fold dilution): 2 mM, cytotoxicity flag (confluency mask): not cytotoxic, agonist: Imiquimod (TLR7) […]",1.12
same,NF-kB SEAP reporter activity,"[1]; library stock concentration (final ~1000-fold dilution): 2 mM, cytotoxicity flag (confluency mask): not cytotoxic, agonist: MPLA (TLR4) […]",1.35
CCOC(=O)C1=C(COCCN)NC(C)=C(C(=O)OC)C1c1ccccc1Cl.O=S(=O)(O)c1ccccc1 (stereo unspecified),NF-kB SEAP reporter activity,[1]; [5],2.58
CC12CCC3c4ccc(O)cc4CCC3C1CC(O)C2O (stereo unspecified),NF-kB SEAP reporter activity,[1]; [9],1.11
same,NF-kB SEAP reporter activity,[1]; [10],1.08
CC12CCC3c4ccc(O)cc4CCC3C1CC(O)C2O (stereo unspecified) (library stock concentration (final ~1000-fold dilution): 10 mM),NF-kB SEAP reporter activity,[3]; agonist: LPS (TLR4) 0.1 ug/mL,1.1
same,NF-kB SEAP reporter activity,[3]; [6],1.1
same,NF-kB SEAP reporter activity,[3]; [7],1.16
same,NF-kB SEAP reporter activity,[3]; [8],1.33
Cc1ccc(NC(=O)c2ccc(CN3CCN(C)CC3)cc2)cc1Nc1nccc(-c2cccnc2)n1,NF-kB SEAP reporter activity,[1]; [9],1.31
same,NF-kB SEAP reporter activity,[1]; [10],1.69
Cc1ccc(NC(=O)c2ccc(CN3CCN(C)CC3)cc2)cc1Nc1nccc(-c2cccnc2)n1 (library stock concentration (final ~1000-fold dilution): 10 mM),NF-kB SEAP reporter activity,[3]; agonist: LPS (TLR4) 0.1 ug/mL,1.23
same,NF-kB SEAP reporter activity,[3]; [6],0.212
same,NF-kB SEAP reporter activity,[3]; [7],1.55
same,NF-kB SEAP reporter activity,[3]; [8],1.42
CN(C)CC/C=C1\c2ccccc2COc2ccccc21.Cl (library stock concentration (final ~1000-fold dilution): 10 mM),NF-kB SEAP reporter activity,[3]; agonist: LPS (TLR4) 0.1 ug/mL,1.31
same,NF-kB SEAP reporter activity,[3]; [6],0.893
same,NF-kB SEAP reporter activity,[3]; [7],0.954
same,NF-kB SEAP reporter activity,[3]; [8],1.1
CN(C)CC/C=C1\c2ccccc2COc2ccccc21.Cl,NF-kB SEAP reporter activity,[1]; [9],1.97
same,NF-kB SEAP reporter activity,[1]; [10],1.24
O=C(c1ccc(F)c(F)c1Nc1ccc(I)cc1F)N1CC(O)(C2CCCCN2)C1 (stereo unspecified),NF-kB SEAP reporter activity,[1]; [4],0.122
same,NF-kB SEAP reporter activity,[1]; [5],0.246
O=C(c1ccc(F)c(F)c1Nc1ccc(I)cc1F)N1CC(O)(C2CCCCN2)C1 (stereo unspecified) (library stock concentration (final ~1000-fold dilution): 10 mM),NF-kB SEAP reporter activity,[2]; agonist: LPS (TLR4) 0.1 ug/mL,0.248
same,NF-kB SEAP reporter activity,[2]; [6],0.184
same,NF-kB SEAP reporter activity,[2]; [7],0.0656
same,NF-kB SEAP reporter activity,[2]; [8],0.122
CCc1cc2c(cc1N1CCC(N3CCOCC3)CC1)C(C)(C)c1[nH]c3cc(C#N)ccc3c1C2=O (library stock concentration (final ~1000-fold dilution): 10 mM),NF-kB SEAP reporter activity,[3]; agonist: LPS (TLR4) 0.1 ug/mL,1.36
same,NF-kB SEAP reporter activity,[3]; [6],1.06
same,NF-kB SEAP reporter activity,[3]; [7],0.75
same,NF-kB SEAP reporter activity,[3]; [8],1.44
CCc1cc2c(cc1N1CCC(N3CCOCC3)CC1)C(C)(C)c1[nH]c3cc(C#N)ccc3c1C2=O,NF-kB SEAP reporter activity,[1]; [9],1.14
same,NF-kB SEAP reporter activity,[1]; [10],1.07
